Laboratory results published in patent publication US20220117993A1, “Compounds Useful in HIV Therapy” (GlaxoSmithKline Intellectual Property (No. 2) Limited, priority 2018, published 2022).
pIC50: −log10 of the molar value. Read-outs that look alike come from different tables or passages of the source.

What was measured:
[1] = test system: WT PSV infection of U373 cells; details: ratio of the IC50 determined at 48 and 0 h
[2] = test system: WT PSV infection of U373 cells; assay: microbe, parasite or virus in culture; details: Human immunodeficiency virus 1, U373 MG

Compound | Persistence Index [1] | pIC50 ([2]; read-out: WT IC50 at t = 0 h) | pIC50 ([2]; read-out: WT IC50 at t = 48 h)
C#C[C@]1(CO)O[C@@H](n2cnc3c(N)nc(F)nc32)C[C@@H]1OC(C)=O [Example 1, (2R,3S,5R)-5-(6-amino-2-fluoro-9H-purin-9-yl)-2-ethynyl-2-(hydroxymethyl)tetrahydrofuran-3-yl acetate] | 37.4 | 7.12 | 5.66
C#C[C@]1(CO)O[C@@H](n2cnc3c(N)nc(F)nc32)C[C@@H]1OC(=O)CCCCCCCCCCCCCCCCCCC [Example 6, (2R,3S,5R)-5-(6-amino-2-fluoro-9H-purin-9-yl)-2-ethynyl-2-(hydroxymethyl)tetrahydrofuran-3-yl icosanoate] | 4.7 | 6.39 | 5.66
C#C[C@]1(CO)O[C@@H](n2cnc3c(N)nc(F)nc32)C[C@@H]1OC(=O)CCCCCCC/C=C\C/C=C\C/C=C\CC [Example 7, (9Z,12Z,15Z)-(2R,3S,5R)-5-(6-amino-2-fluoro-9H-purin-9-yl)-2-ethynyl-2-(hydroxymethyl)tetrahydrofuran-3-yl octadeca-9,12,15-trienoate] | 21.4 | 8.29 | 6.90
C#C[C@]1(CO)O[C@@H](n2cnc3c(NC(=O)CCCCCCCCCCCCC)nc(F)nc32)C[C@@H]1OC(C)=O [Example 14, (2R,3S,5R)-2-ethynyl-5-(2-fluoro-6-tetradecanamido-9H-purin-9-yl)-2-(hydroxymethyl)tetrahydrofuran-3-yl acetate] | 11.4 | 8.19 | 7.14
